Patent publication US20170281764A1 (JN BIOSCIENCES, published 2017)

Molecular target: T1, human TIGIT on cells (Jurkat-TIGIT cells; human T cells, NK cells and other blood cells) (human, UniProt Q495A1 22-244)
T1 sequence: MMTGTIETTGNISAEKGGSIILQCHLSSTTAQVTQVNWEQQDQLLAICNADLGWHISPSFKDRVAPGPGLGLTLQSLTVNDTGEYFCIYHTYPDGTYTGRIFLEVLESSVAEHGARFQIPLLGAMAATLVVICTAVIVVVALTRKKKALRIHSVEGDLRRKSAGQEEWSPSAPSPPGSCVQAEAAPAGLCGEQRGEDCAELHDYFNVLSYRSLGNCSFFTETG
Test: cell-based or functional assay

B1: HuTIG3-IgG1.AA (humanized IgG1/kappa form of TIG3, L234A/L235A) (antibody)
heavy: EVQLVESGGGLVQPGGSLRLSCAASGFAFSDYDMSWVRQAPGKGLEWVAYISDGGYNTYYPDTVKGRFTISRDNAKNSLYLQMNSLRAEDTAVYYCARQILLRYYFDYWGQGTTVTVSS[human IgG1 constant region with changes cut from this listing]
light: DIQMTQSPSSLSASVGDRVTITCKSSQSLLYSSNQKNYLAWYQQKPGKAPKLLIYWASTRESGVPSRFSGSGSGTDFTLTISSLQPEDFAVYYCQQYHSYPWTFGGGTKVEIKRTVAAPSVFIFPPSDEQLKSGTASVVCLLNNFYPREAKVQWKVDNALQSGNSQESVTEQDSKDSTYSLSSTLTLSKADYEKHKVYACEVTHQGLSSPVTKSFNRGEC
notes: Mature full chains; also called humanized TIG3
  increase of K562 target cell killing by purified NK cells, 10 µg/ml antibody, relative to 'No Antibody' or Rituxan: 19%
